Results as given in the supplement of paper PMC8728848.
This is one part of the list.

Legend:
Experiment in all cases: glycan array binding signal (z-score within array); higher = stronger binding
Settings in all cases: glycan notation: IUPAC condensed, linker removed
[1] = target: Neu5Ac(a2-3)Gal6S(b1-4)[Fuc(a1-3)]GlcNAc
Procedure, shortened: (§1)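 The Consortium for Functional Glycomics database supplied 3228 glycan arrays, of which those lacking an available protein sequence were dropped. The binding signal, a within-array Z-score, was averaged across arrays of the same protein sequence and across linkers. Negative scores can be read as non-binding.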

Neu5Ac(a2-3)GalNAc = target: Neu5Ac(a2-3)GalNAc
Procedure, shortened: as §1

[2] = target: Neu5Ac(a2-3)GalNAc(b1-4)GlcNAc
Procedure, shortened: as §1

[3] = target: Neu5Ac(a2-3)[GalNAc(b1-4)]Gal(b1-4)Glc
Procedure, shortened: as §1

[4] = target: Neu5Ac(a2-3)[GalNAc(b1-4)]Gal(b1-4)GlcNAc
Procedure, shortened: as §1

[5] = target: Neu5Ac(a2-3)[GalNAc(b1-4)]Gal(b1-4)GlcNAc(b1-3)GalNAc
Procedure, shortened: as §1

[6] = target: Neu5Ac(a2-3)[Neu5Ac(a2-6)]GalNAc
Procedure, shortened: as §1

Neu5Ac(a2-6)Gal = target: Neu5Ac(a2-6)Gal
Procedure, shortened: as §1

[7] = target: Neu5Ac(a2-6)Gal(b1-3)GlcNAc(b1-3)[Gal(b1-4)GlcNAc(b1-6)]Gal(b1-4)Glc
Procedure, shortened: as §1

Neu5Ac(a2-6)Gal(b1-4)Glc = target: Neu5Ac(a2-6)Gal(b1-4)Glc
Procedure, shortened: as §1

[8] = target: Neu5Ac(a2-6)Gal(b1-4)GlcNAc
Procedure, shortened: as §1

[9] = target: Neu5Ac(a2-6)Gal(b1-4)GlcNAc(b1-2)Man
Procedure, shortened: as §1

[10] = target: Neu5Ac(a2-6)Gal(b1-4)GlcNAc(b1-2)Man(a1-3)Man(b1-4)GlcNAc(b1-4)GlcNAc
Procedure, shortened: as §1

[11] = target: Neu5Ac(a2-6)Gal(b1-4)GlcNAc(b1-2)Man(a1-3)[Gal(b1-4)GlcNAc(b1-2)Man(a1-6)]Man(b1-4)GlcNAc(b1-4)GlcNAc
Procedure, shortened: as §1

[12] = target: Neu5Ac(a2-6)Gal(b1-4)GlcNAc(b1-2)Man(a1-3)[GlcNAc(b1-4)][Neu5Ac(a2-6)Gal(b1-4)GlcNAc(b1-2)Man(a1-6)]Man(b1-4)GlcNAc(b1-4)GlcNAc
Procedure, shortened: as §1

[13] = target: Neu5Ac(a2-6)Gal(b1-4)GlcNAc(b1-2)Man(a1-3)[Man(a1-6)]Man(b1-4)GlcNAc(b1-4)GlcNAc
Procedure, shortened: as §1

[14] = target: Neu5Ac(a2-6)Gal(b1-4)GlcNAc(b1-2)Man(a1-3)[Neu5Ac(a2-3)Gal(b1-4)GlcNAc(b1-2)Man(a1-6)]Man(b1-4)GlcNAc(b1-4)GlcNAc
Procedure, shortened: as §1

[15] = target: Neu5Ac(a2-6)Gal(b1-4)GlcNAc(b1-2)Man(a1-3)[Neu5Ac(a2-6)Gal(b1-4)GlcNAc(b1-2)Man(a1-6)]Man(b1-4)GlcNAc(b1-4)GlcNAc
Procedure, shortened: as §1

[16] = target: Neu5Ac(a2-6)Gal(b1-4)GlcNAc(b1-2)Man(a1-3)[Neu5Ac(a2-6)Gal(b1-4)GlcNAc(b1-2)Man(a1-6)]Man(b1-4)GlcNAc(b1-4)[Fuc(a1-6)]GlcNAc
Procedure, shortened: as §1

[17] = target: Neu5Ac(a2-6)Gal(b1-4)GlcNAc(b1-2)Man(a1-6)Man(b1-4)GlcNAc(b1-4)GlcNAc
Procedure, shortened: as §1

[18] = target: Neu5Ac(a2-6)Gal(b1-4)GlcNAc(b1-2)Man(a1-6)[Gal(b1-4)GlcNAc(b1-2)Man(a1-3)]Man(b1-4)GlcNAc(b1-4)GlcNAc
Procedure, shortened: as §1

[19] = target: Neu5Ac(a2-6)Gal(b1-4)GlcNAc(b1-2)Man(a1-6)[GlcNAc(b1-2)Man(a1-3)]Man(b1-4)GlcNAc(b1-4)GlcNAc
Procedure, shortened: as §1

B1: Cp ZmpB (Clostridium perfringens), Q0TR08 (protein)
chain: MNKRKIAAIILATMITNLSATTIDVLAQELNTKNNSKVEVSHDDESHQARVSKFDLYNSDKLDAYNQEFQVSRSNIKSINNNGGKYNSSTIDKAIDGNLETHWETGKPNDANFTNEVVVTFNEITNIDRIVYSARRDSARGKGFAKEFEIYASLKDEGDDFNLVSSGEYTESTRDLVEIKFNPTDFKRLKFKFKKADQNWASAAEFMFYKEDKLNEKFNGLFTDSSMNKVSEEFNTLEKLNAFENELKDHPIYDLYKEGLNNARAILTETSENPTKATLGQITYNLNDDYNNQYRMPYKNIKAIKNNGRHYAAQNIEKAIDNDVNTYWETGTLNSSSFNNEVEVEFNDLVTLDRIVYGSRQSDLKGFAEEVYIYASRTSKGDTYKLVATGAHEATKGLVEAKFEPTEFKRVKFKFKKSKQNSATLNELMFYKPDEVYSSIPKLFTDGTMSELSEEFNSLEKINAFKEKAKNHPLYNDFNETIELAESLISNPRKEDVLELEMRGDSISEAKKRKVWNFQDWQITGLSARAGDKITVYVDVAEGDPTPTLLYKQSLTQHGGATSFQLKPGKNEITIPEINYESNGIPKDVIQGGDLFFTNYKSDSQKRAPKVRIEGASKYPVFILGKSDENEVMKELEAYVEKIKAEPKTTPNIFAVSSNKSLEFVQATYALDWYKKNNKTPKYTAEQWDQYIADAMGFWGFDNSKDVNSDFNFRIMPMVKNLSGGAFMNAGNGVIGIRPGNQDAILAANKGWGVAHELGHNFDTGGRTIVEVTNNMMPLFFESKYKTKTRITDQNIWENNTYPKVGLDDYSNNELYNKADSTHLAQLAPLWQLYLYDNTFYGKFERQFRERDFGNKNREDIYKSWVVAASDAMELDLTEFFARHGIRVDDKVKEDLAKYPKPDKKIYYLNDLAMNYKGDGFTENAKVSVSTSGSNGNIKLSFSVDDENKDNILGYEIRRDGKYVGFTSNDSFVDTKSNLDEDGVYVVTPYDRKLNTLNPIEVNALQPTLSVNPVITLALGEEFNEEEYIVAKDIKGNSLSESVKVKSSNVNTSKVGEYEVLYSLEDSKGNEYTKTSKVNVVSRKEYMSDLTPKQSSNGWGTVRKDKSISGGVIGLTRDGDFVDYNKGLGLHSNAEYVYDLEGKDYDYFESYVGVDKAMSSRPASSVIFKVLVDGEEKFNSGVMRSTTPQKYVKVDVKNAKELKLIVNDAGDGDSSDHASFGDAKLATLSSKPIIKGENLAYSMDEKVDLMKGITATDIEDGNITSKVQIKSSDFVEGKSGIFTVVYSVTDSDGLTSECSRTIAVTDKETQLSDLNWKSATIGSGSVRKDRAVSGNQIRLLNEDNSVETFAKGIGTHSYSEIVYNSEGYDIFDTWVGIDRHVADKKVSSVKFKVYVDGELKAETDVMRIDTPKKRLVVDVRNSKEIKLVVDVADNGNNWDHADWADAKFRNLAEYDASELNKAIEEAKKLDLNNYTEESSEALKNAISKGEEALLSKDKETINSALEELNKEMNSLVKVDLNAVINIPDKYLLKSIQNQLNKTGDITLGDMYSLTTLTLSGVEDLTGLENAKNLETLNMDYNEVKDLRPLSKLKKLNTLNAQEQFIAAGELKPSNGKVIGDSKVYNREGKNVAKTIRVVDKNGNTILEQDAKDEFTINTKDLSSGLYGVHVLFEDEGFSGVMFYLFNV
- glycan array binding signal (z-score) [1]: 0.026
- glycan array binding signal (z-score) (Neu5Ac(a2-3)GalNAc): -0.181
- glycan array binding signal (z-score) [2]: -0.048
- glycan array binding signal (z-score) [3]: -0.154
- glycan array binding signal (z-score) [4]: -0.398
- glycan array binding signal (z-score) [5]: 0.317
- glycan array binding signal (z-score) [6]: -0.391
- glycan array binding signal (z-score) (Neu5Ac(a2-6)Gal): -0.172
- glycan array binding signal (z-score) [7]: -0.189
- glycan array binding signal (z-score) (Neu5Ac(a2-6)Gal(b1-4)Glc): -0.214
- glycan array binding signal (z-score) [8]: -0.28
- glycan array binding signal (z-score) [9]: 0.056
- glycan array binding signal (z-score) [10]: -0.151
- glycan array binding signal (z-score) [11]: 0.472
- glycan array binding signal (z-score) [12]: -0.267
- glycan array binding signal (z-score) [13]: -0.365
- glycan array binding signal (z-score) [14]: 0.529
- glycan array binding signal (z-score) [15]: -0.121
- glycan array binding signal (z-score) [16]: -0.037
- glycan array binding signal (z-score) [17]: -0.16
- glycan array binding signal (z-score) [18]: -0.104
- glycan array binding signal (z-score) [19]: -0.274
